Results as given in the supplement of paper PMC4166925.
± gives the standard deviation of the averaged measurements. Whole data set: some 33,000 sequences, median “E-score (dimensionless, -0.5 to 0.5)” near -0.046, cut for the highest 2% near 0.36. The list shows a part of the results.

tested on: T1, SpTbr T-box DNA-binding domain (GST fusion); assay: PBM E-score of 8-mer (E-score (dimensionless, -0.5 to 0.5)); Tbr is Tbrain of the sea star Patiria miniata (Pm) or the sea urchin Strongylocentrotus purpuratus (Sp); higher = stronger binding preference; most listed sequences are background and not binding sites; details: the construct has about 5 more residues each side
T1 sequence: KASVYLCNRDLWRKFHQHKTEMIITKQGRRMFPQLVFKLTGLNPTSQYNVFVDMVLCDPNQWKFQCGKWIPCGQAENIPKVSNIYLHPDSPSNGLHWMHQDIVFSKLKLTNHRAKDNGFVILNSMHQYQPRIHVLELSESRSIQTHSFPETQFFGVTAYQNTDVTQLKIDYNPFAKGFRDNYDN
Summary of the method: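 Each ungapped 8-mer received an enrichment E-score from the Universal PBM Analysis Suite, averaged over duplicate arrays. The proteins were Tbr T-box DNA-binding domains, covering the whole T-box plus about five flanking residues, fused to GST and expressed in BL21 E. coli at 20 °C before glutathione affinity purification. Universal Agilent oligonucleotide arrays were made double-stranded by primer extension and incubated with 200 nM protein in PBS (pH 7.5). The arrays were then scanned and quantified, and every 8-mer was scored from probe intensities.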

In order of rising “PBM E-score of 8-mer” value:
1. TAGGACGA  -0.398 ± 0.01
2. AGGCCCCT  -0.335 ± 0.05
3. TTCCGGAA  -0.324 ± 0.027
4. ATCTGGCC  -0.323 ± 0.059
5. GCTCCATA  -0.315 ± 0.018
6. ATTGCGTA  -0.303 ± 0.074
7. ATGCTAGG  -0.274 ± 0.059
8. GCATCGAA  -0.268 ± 0.09
9. AGATTACC  -0.264 ± 0.051
10. ATAGCTAT  -0.2557 ± 0.0024
11. TATAAAAA  -0.255 ± 0.12
12. CAAAGAAA  -0.247 ± 0.013
13. CAAGCCAG  -0.244 ± 0.0068
14. CTCCATGA  -0.24 ± 0.038
15. CAATTGAA  -0.238 ± 0.011
16. ATTTTGAG  -0.236 ± 0.042
17. GACATATA  -0.234 ± 0.017
18. GTAAGCTA  -0.231 ± 0.081
19. GTCTAGAC  -0.227 ± 0.049
20. AGAGGTAG  -0.227 ± 0.024
21. ATGAAGGA  -0.2226 ± 0.0014
22. AGTAGTTA  -0.222 ± 0.061
23. ATAAACCC  -0.22 ± 0.039
24. CTGCGGGA  -0.215 ± 0.063
25. CGAGGGTA  -0.211 ± 0.033
26. CGGCGTCC  -0.21 ± 0.024
27. GACTCTCC  -0.206 ± 0.065
28. AGACATCC  -0.203 ± 0.026
29. AAGGGGTA  -0.2 ± 0.05
30. CCGTACAA  -0.197 ± 0.0048
31. ATTCATTC  -0.192 ± 0.052
32. AGCTCGCC  -0.188 ± 0.034
33. CGTGCTCC  -0.186 ± 0.027
34. GAGTCATC  -0.181 ± 0.013
35. CGAGCCAG  -0.178 ± 0.036
36. AGTCGGAT  -0.175 ± 0.036
37. AGCCTATC  -0.168 ± 0.1
38. GGGGATGA  -0.164 ± 0.0062
39. ACTACCTC  -0.1643 ± 0.00054
40. GTCTTGTA  -0.157 ± 0.08
41. GAGACTTA  -0.152 ± 0.06
42. CTGCAAGA  -0.152 ± 0.095
43. AAGTACTA  -0.147 ± 0.06
44. TAAGCCGA  -0.145 ± 0.03
45. CTGGATGC  -0.14 ± 0.091
46. CGAGCCCA  -0.139 ± 0.096
47. GCTGGTAA  -0.138 ± 0.021
48. CCGTTGCA  -0.131 ± 0.064
49. AACCGCCT  -0.126 ± 0.019
50. AATCTACT  -0.126 ± 0.048
51. GTCTTGCA  -0.125 ± 0.055
52. CGTAATGA  -0.117 ± 0.015
53. CTTGAAGA  -0.116 ± 0.033
54. GCTGGTTA  -0.115 ± 0.072
55. AACTCCTT  -0.11 ± 0.0082
56. ACTATACA  -0.109 ± 0.036
57. CTTATGCA  -0.106 ± 0.0025
58. ACCCAGGG  -0.105 ± 0.0054
59. ATTCGTGG  -0.1 ± 0.036
60. TAATTGCA  -0.0968 ± 0.049
61. ACTGTACG  -0.09 ± 0.021
62. AGACATGC  -0.0873 ± 0.0045
63. AATGACGT  -0.0766 ± 0.026
64. CCGACCGC  -0.0728 ± 0.073
65. GACAGAAC  -0.0696 ± 0.06
66. AACTCTCC  -0.064 ± 0.054
67. AGCCATAA  -0.0626 ± 0.052
68. TAATGGTA  -0.0621 ± 0.066
69. AGAGTCCA  -0.0614 ± 0.035
70. CTCTTTGA  -0.061 ± 0.03
71. AATCCACC  -0.0595 ± 0.05
72. CGAAACAG  -0.0595 ± 0.081
73. CGCTGAAG  -0.0583 ± 0.034
74. GTTATGAA  -0.0569 ± 0.075
75. CAAATGGA  -0.0481 ± 0.054
76. ATAAGGAT  -0.047 ± 0.0052
77. AGCGTCAG  -0.0445 ± 0.1
78. AGCACGAA  -0.0432 ± 0.027
79. ACCCCATG  -0.0417 ± 0.088
80. CGCAGATC  -0.0398 ± 0.062
81. AGCGGGCA  -0.0395 ± 0.016
82. AGGAAATG  -0.0384 ± 0.042
83. AAGTCATT  -0.0364 ± 0.011
84. TAATATGA  -0.0359 ± 0.048
85. AAGCGTAA  -0.0333 ± 0.041
86. AAACTCAT  -0.0314 ± 0.058
87. CAGCCGTC  -0.0313 ± 0.023
88. AAGCTAAA  -0.0312 ± 0.054
89. AAATCCGT  -0.0309 ± 0.033
90. ACCTACCG  -0.0257 ± 0.0024
91. GTAAAACA  -0.0246 ± 0.021
92. CTGATACA  -0.0236 ± 0.00083
93. AAGAATCG  -0.0227 ± 0.04
94. AAGTGGCC  -0.0217 ± 0.037
95. ACCCCGGG  -0.021 ± 0.06
96. TAACATCA  -0.0199 ± 0.006
97. CTACCGGC  -0.0193 ± 0.1
98. TCAAACGA  -0.0189 ± 0.061
99. CAAACAAC  -0.0156 ± 0.059
100. ACGTGCAG  -0.0147 ± 0.021
101. CCTGATGA  -0.0143 ± 0.035
102. ATTATCGG  -0.0103 ± 0.047
103. ATCAATTG  -0.00983 ± 0.05
104. CAATGAGC  -0.00772 ± 0.00032
105. GCCTGCTA  -0.00335 ± 0.0067
106. ATAACCAT  -0.00221 ± 0.0059
107. AGGTGCAT  -0.00019 ± 0.081
108. CTTCGGCA  0.00492 ± 0.087
109. ACGATTAT  0.00702 ± 0.073
110. ATTGTATG  0.0134 ± 0.0065
111. AAGCTACT  0.0134 ± 0.039
112. ATTCGGTG  0.0136 ± 0.061
113. CATACCAG  0.0148 ± 0.026
114. CTCGAGAA  0.0154 ± 0.059
115. CACTAGCC  0.0158 ± 0.04
116. TGATCCAA  0.0181 ± 0.054
117. ACTTCGTA  0.0211 ± 0.065
118. ACTTCTGA  0.0261 ± 0.032
119. GCCACCCA  0.0264 ± 0.086
120. GGGAGTCA  0.032 ± 0.043
121. ATGTCGCC  0.0362 ± 0.024
122. CATTTTAC  0.0366 ± 0.028
123. ACGACCTG  0.0367 ± 0.035
124. CGCTATGA  0.0376 ± 0.03
125. ACCGCTAC  0.0419 ± 0.058
126. GAATCCGC  0.0425 ± 0.011
127. CGGCATCA  0.043 ± 0.011
128. TAAGTAAA  0.0493 ± 0.044
129. ACGTGAGC  0.0515 ± 0.033
130. AGTCGCCC  0.0547 ± 0.015
131. ACTTACCC  0.0548 ± 0.033
132. ACCAAATC  0.0574 ± 0.025
133. AAAGTTAG  0.0626 ± 0.036
134. CGGTCACC  0.0651 ± 0.051
135. GCGCCCCA  0.0659 ± 0.033
136. CGACTACG  0.0687 ± 0.0023
137. GTAAGTAC  0.0781 ± 0.011
138. ATATGAAG  0.0787 ± 0.013
139. AGACCGTG  0.08 ± 0.036
140. CACAAAAA  0.0846 ± 0.057
141. ATACCGCC  0.0935 ± 0.075
142. AGGTTCTC  0.0974 ± 0.045
143. GTCTGACA  0.113 ± 0.0026
144. ACACTGGT  0.124 ± 0.061
145. AAGTGAGC  0.134 ± 0.0044
146. GACTGACA  0.134 ± 0.035
147. GCCTACAC  0.137 ± 0.073
148. TACTGCGA  0.141 ± 0.02
149. GCTACCAC  0.141 ± 0.035
150. CCACCCAC  0.166 ± 0.032
151. CCTCCCAC  0.167 ± 0.051
152. AGTGAGGC  0.168 ± 0.0085
153. CACGGACA  0.1677 ± 0.00032
154. ATGTGCAA  0.182 ± 0.095
155. CATCCGCG  0.185 ± 0.047
156. ATAACGTG  0.19 ± 0.0011
157. ACAGCTTA  0.192 ± 0.026
158. CCCACACA  0.199 ± 0.038
159. ACAGTTTG  0.207 ± 0.011
160. AACAGCTC  0.2132 ± 0.00089
161. GACAACGC  0.217 ± 0.013
162. CGGCGCCG  0.217 ± 0.027
163. AACACCGA  0.228 ± 0.03
164. CAGCTGTC  0.247 ± 0.01
165. CAGTTGCG  0.255 ± 0.0065
166. GCATCACA  0.299 ± 0.043
167. AGCCACAC  0.311 ± 0.049
168. ACCTTGCG  0.318 ± 0.017
169. ACGCGTCA  0.318 ± 0.0057
170. ACCTCGCG  0.325 ± 0.014
171. AGCAGGTG  0.377 ± 0.00094
172. TGCGTGAA  0.3936 ± 0.0023
